About 6,400 (1.6%) of roughly 410,000 compounds were called active. The shares of active, inactive and inconclusive entries below differ from those in the screen. Calls come from the whole dose curve; as a rule, active = well fitted inhibition curve with a large enough effect; inconclusive = small, poorly fitted or top-dose-only effect; inactive = no such curve, though single readings can be large or run the other way. No potency is given beside an inconclusive call; the fits are too rough.
What follows are compounds tested against Glucagon-like peptide 1 receptor (Homo sapiens) (UniProt P43220) (assay: qHTS of GLP-1 Receptor Inverse Agonists (Inhibition Mode)). Conditions: HEK293 GLP-1R CRE-luciferase, luminescence, 24 h, GLP-1R form is constitutively active; activity change, negative = inhibition: at 38.3 µM (top of the series) unless noted.
UniProt P43220, sequence (P43220 whole entry, looked up): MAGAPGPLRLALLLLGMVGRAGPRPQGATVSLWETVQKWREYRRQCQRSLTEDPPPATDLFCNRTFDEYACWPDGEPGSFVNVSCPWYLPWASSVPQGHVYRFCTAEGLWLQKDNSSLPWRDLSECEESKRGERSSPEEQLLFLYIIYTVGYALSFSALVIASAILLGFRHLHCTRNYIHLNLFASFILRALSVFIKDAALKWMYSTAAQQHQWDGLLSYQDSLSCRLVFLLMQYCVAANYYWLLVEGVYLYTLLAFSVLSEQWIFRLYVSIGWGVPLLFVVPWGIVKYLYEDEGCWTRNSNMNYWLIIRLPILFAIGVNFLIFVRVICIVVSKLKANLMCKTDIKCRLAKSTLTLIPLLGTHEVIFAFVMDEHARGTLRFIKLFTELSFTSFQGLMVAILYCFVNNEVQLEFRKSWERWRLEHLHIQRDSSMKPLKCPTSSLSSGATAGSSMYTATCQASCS
Method in brief: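 HEK293 cells stably co-expressing a cAMP-responsive luciferase reporter and constitutively active GLP-1R were seeded, incubated 12 h, then exposed to compounds for 24 h at 37 C. Luminescence was read 12 min after detection reagent; inverse agonists lower signal.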
With `CC(C)Cn1c(-c2cccs2)nc2nc3ccccc3nc21` the Potency was active: 3.98 µM.
For `CN(CC(=O)NCCc1ccc(F)cc1)CC(=O)Nc1ccc(F)c(F)c1F`, the Potency was inconclusive [inhibitor, single point].
With `COc1ccccc1N1CCN(S(=O)(=O)/C=C/c2ccccc2)CC1` the Potency was inconclusive [inhibitor, single point].
For `Cc1cccc(NC2=NC(C)(C)N=C(N)N2)c1`, the Potency was inconclusive [inhibitor, partial curve].
In the case of `CCN(CC)C(=O)c1sc2c(c1C)c(=O)n(CCc1ccccc1)c(=O)n2Cc1cc(C)ccc1C`, the “activity change, negative = inhibition” value is reported as inactive: 9.52%.
With `COc1cccc(N2CCN(C(=O)c3cc4c(s3)-c3ccccc3OC4)CC2)c1` the Potency was inconclusive [inhibitor, partial curve, poor fit].
`O=C1C=C(c2c(O)ccc3ccccc23)c2ccccc2C1=O` was tested, and the Potency was inconclusive [inhibitor, full curve, poor fit].
In the case of `O=C(CCSc1ccc(F)cc1)Nc1ccc(-n2cnnn2)cc1`, the Potency is reported as inconclusive [inhibitor, partial curve, poor fit].
`Cc1ccccc1NC(=O)Cc1nc(COC(=O)c2ccc(NC(N)=O)cc2)cs1` was tested, and the “activity change, negative = inhibition” value was inactive: -21.1%.
In the case of `COc1ccc(-c2[nH]c3ccccc3c2SCCNC(=O)c2cc3ccccc3oc2=O)cc1`, the Potency is reported as inconclusive [inhibitor, single point].
In the case of `Cc1ccccc1C(=O)Nc1ccc2nc(N3CCCCC3)cc(C)c2c1`, the Potency is reported as inconclusive [inhibitor, partial curve, poor fit].
For `CCc1ccccc1OCC(=O)Nc1nc(-c2cccnc2)cs1`, the Potency was inconclusive [inhibitor, full curve, poor fit].
For `c1ccc(-c2cc(N3CCOCC3)nc3ccccc23)cc1`, the Potency was inconclusive [inhibitor, single point].
With `CC(C)(C)c1cc(N/C=C\c2nnnn2-c2ccc(Br)cc2)no1` the Potency was inconclusive [inhibitor, full curve, poor fit].
With `O=C(Nc1ccc(Cl)c(Cl)c1)NC1CCS(=O)(=O)C1` (stereo unspecified) the Potency was inconclusive [inhibitor, full curve, poor fit].
With `COC(=O)c1ccc(NC(=O)CC2C(=O)N(c3ccccc3)C(=O)N2Cc2ccc(F)cc2)cc1` (stereo unspecified) the “activity change, negative = inhibition” value was inactive: -16.6%.
In the case of `COc1ccccc1NC(=O)Nc1nc(C(N)Cc2ccc(C(F)(F)F)cc2)cs1` (stereo unspecified), the Potency is reported as inconclusive [inhibitor, partial curve].
With `COc1cccc(N2CCN(C(=O)C3CCN(S(=O)(=O)c4c(C)noc4/C=C/c4ccccc4F)CC3)CC2)c1` the Potency was inconclusive [inhibitor, partial curve, poor fit].
In the case of `Cc1c(C(=O)Nc2ccccc2)sc2nc(-c3cc4cc(Cl)ccc4oc3=O)[nH]c(=O)c12`, the “activity change, negative = inhibition” value is reported as inactive: 5.92%.
For `CCCS(=O)(=O)c1c(S(=O)(=O)CCC)c2cc(C(C)(C)C)ccn2c1C(=O)c1ccccc1`, the Potency was inconclusive [inhibitor, partial curve, poor fit].
`CCCN(CCC)c1nc2c(C)cccn2c(=O)c1/C=C1/SC(=S)N(Cc2ccco2)C1=O` was tested, and the Potency was inconclusive [inhibitor, partial curve, poor fit].
`O=C1C=C(Nc2cccc3cccnc23)c2ccccc2C1=O` was tested, and the “activity change, negative = inhibition” value was inactive: -27.5%.
For `Cc1onc(-c2c(F)cccc2Cl)c1C(=O)OCc1cnc(Cl)s1`, the Potency was inconclusive [inhibitor, partial curve, poor fit].
In the case of `COc1ccc2nc3c(cc2c1)c(NC(=O)CC(C)C)nn3CC(C)C`, the Potency is reported as inconclusive [inhibitor, partial curve, poor fit].
With `Cc1[nH]n(-c2cccc(Cl)c2)c(=O)c1-c1ccc(Cl)cc1` the Potency was inconclusive [inhibitor, single point].
For `COc1cccc(CNc2ncc(-c3ccccc3)n2C)c1`, the Potency was inconclusive [inhibitor, single point].
In the case of `O=C(Cc1cccs1)N1CCN=C1SCc1ccc(Br)cc1`, the Potency is reported as inconclusive [inhibitor, single point].
With `Cc1ccc(Cl)cc1NC(=S)N(CCCN1CCN(C)CC1)Cc1ccco1` the Potency was inconclusive [inhibitor, partial curve, poor fit].
For `Cc1cc(C)c2cc(CN(CCO)C(=O)Nc3ccc(Cl)cc3)c(=O)[nH]c2c1`, the Potency was inconclusive [inhibitor, partial curve, poor fit].
With `COc1ccc(CNC(=O)Cn2cnc3c(OCc4ccccc4)ncnc32)cc1` the Potency was inconclusive [inhibitor, partial curve, poor fit].
With `COc1ccc(N(Cc2cccs2)C(=O)c2ccc(OC)c(Cl)c2)cc1` the Potency was inconclusive [inhibitor, single point].
In the case of `Cc1cccc(N2CCN(C(=O)C3CCN(S(=O)(=O)c4c(C)noc4C)CC3)CC2C)c1` (stereo unspecified), the Potency is reported as inconclusive [inhibitor, single point].
In the case of `CCC(=O)N(Cc1cc2cc(C)c(C)cc2[nH]c1=O)C1CCCCC1`, the Potency is reported as active: 10 µM.
For `CCN(CC(=O)Nc1c(F)cccc1F)C(=O)CNC(=O)C1CCCCC1`, the Potency was inconclusive [inhibitor, full curve, poor fit].
`Cc1ccc(NC(=O)c2cc3ccccc3o2)nc1` was tested, and the Potency was inconclusive [inhibitor, single point].
`COc1cccc(NC(=S)N(CCN2CCCCC2)Cc2ccco2)c1` was tested, and the Potency was inconclusive [inhibitor, single point].
In the case of `COc1ccc(N(CC(=O)NCc2ccccc2C)S(=O)(=O)c2ccccc2[N+](=O)[O-])c(OC)c1`, the Potency is reported as inconclusive [inhibitor, single point].
In the case of `O=C(O)C1CCCN1c1nc(Cl)ccc1[N+](=O)[O-]` (stereo unspecified), the “activity change, negative = inhibition” value is reported as inactive: -3.65%.
With `COc1cccc(Nc2nnc(SCc3nc4ccccc4s3)s2)c1` the Potency was inconclusive [inhibitor, single point].
With `O=C(c1ccc(OC2CCN(Cc3ccc(F)cc3)CC2)cc1)N1CCCC1` the Potency was inconclusive [inhibitor, partial curve, poor fit].
With `O=C(Cc1ccc(Cl)cc1)NNc1c(F)c(F)cc(F)c1F` the Potency was inconclusive [inhibitor, partial curve, poor fit].
For `CCN(CC(=O)NC1CCS(=O)(=O)C1)S(=O)(=O)c1ccc2ccccc2c1` (stereo unspecified), the “activity change, negative = inhibition” value was inactive: -0.142%.
For `CC(=O)Nc1cccc(-c2csc(Nc3ccc(Cl)cn3)n2)c1`, the Potency was inconclusive [inhibitor, single point].
In the case of `COc1ccc2c(c1)sc(N)[n+]2Cc1cc(C)cc2cccnc12`, the Potency is reported as inconclusive [inhibitor, full curve, poor fit].
For `Cc1ccc(Cn2c(CO)cnc2SCC(=O)Nc2ccc(C)c(Cl)c2)cc1`, the Potency was active: 12.6 µM.
For `CCOC(=O)c1ccc(S(=O)(=O)N2CCC(C(=O)N3CCN(c4ccccc4OC)CC3)CC2)cc1`, the Potency was inconclusive [inhibitor, full curve, poor fit].
For `CC(C)c1ccc(S(=O)(=O)NC2CCCC2)cc1`, the Potency was inconclusive [inhibitor, partial curve, poor fit].
With `CCc1ccc(C(C)(O)C(CN2CCOCC2)c2ccccc2)cc1` (stereo unspecified) the Potency was inconclusive [inhibitor, single point].
With `COc1ccc(Nc2cc(C(=O)NCCCN3CCN(c4ccccc4F)CC3)c3ccccc3n2)c(OC)c1` the Potency was inconclusive [inhibitor, single point].
For `COc1ccc(NC(=S)N/N=C2\CC(C)(C)Oc3ccc(O)cc32)cc1`, the Potency was inconclusive [inhibitor, partial curve, poor fit].
For `COc1cccc(CN2c3ccccc3-c3nc(SCC(=O)Nc4ccccc4Cl)ncc3S2(=O)=O)c1`, the “activity change, negative = inhibition” value was inactive: -33.9%.
`CCOC(=O)c1[nH]c(C)c(CCC(=O)NCc2ccc(CC)cc2)c1C` was tested, and the Potency was inconclusive [inhibitor, single point].
For `CCOc1cc(C)c(C(C)C)cc1S(=O)(=O)N1CC(C)OC(C)C1` (stereo unspecified), the Potency was inconclusive [inhibitor, partial curve, poor fit].
With `Cc1ccc(C(=O)O/N=C\c2ccc(N3CCCCC3)c([N+](=O)[O-])c2)cc1` the Potency was inconclusive [inhibitor, single point].
With `COc1ccc(Cl)cc1-c1n[nH]c(=S)n1C1CCCCC1` the Potency was inconclusive [inhibitor, single point].
In the case of `Cc1oc(-c2ccc(Cl)cc2)nc1CS(=O)CC(=O)NCc1ccccn1` (stereo unspecified), the Potency is reported as inconclusive [inhibitor, full curve].
`CC(C)C[C@@]12C(=O)N(c3cccc(F)c3)C(=O)N1[C@H](c1ccc(F)cc1)[C@@H]1C(=O)N(C3CCCCC3)C(=O)[C@@H]12` was tested, and the Potency was inconclusive [inhibitor, partial curve].
In the case of `Cc1nc(NC(=O)CSc2nnc(-c3ccccc3)c(-c3ccccc3)n2)c(Cl)cc1Cl`, the Potency is reported as inconclusive [inhibitor, single point].
With `O=C1CSC2(C(=O)N(Cc3cccc(F)c3)c3ccccc32)N1c1cccc(C(F)(F)F)c1` (stereo unspecified) the Potency was inconclusive [inhibitor, single point].
In the case of `CCOc1ccc(CN2CCN(CCCn3cccn3)CC2CCO)cc1` (stereo unspecified), the “activity change, negative = inhibition” value is reported as inactive: -3.46%.
With `CC(C)c1ccc2nc(SCC(=O)NCC3CCCO3)c(C#N)cc2c1` (stereo unspecified) the Potency was inconclusive [inhibitor, partial curve].

Source: PubChem BioAssay AID624417 (National Center for Advancing Translational Sciences (NCATS), 2012)
% is set by controls: 0 for no effect and ±100 for the full control effect; potency is the fitted concentration of half-maximal effect; tags give direction and shape of the fitted curve.
Note: nearly all actives have a fitted effect of over 55% in size.
